The RNAGym collection of RNA variant scans (doi:10.1093/nar/gkz1192)
The source gives no read counts; variants with many changes may rest on few reads.

B1: CPEB3 Ribozyme (parent)
chain: UAACAGGGGGCCACAGCAGAAGCGUUCACGUCGCAGCCCCUGUCAGAUUCUGGUGAAUCUGCGAAUUCUGCUGUAUAUCUC

Variants of: B1
Test: self-cleavage, relative activity (ratio to wild type); higher = more cleavage; in vitro, sequencing
Procedure, shortened: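 After error-prone PCR and barcoding, CPEB3 ribozyme mutant libraries were transcribed with T7 RNA polymerase at 37°C for 5 hours, then given 15 min with DNase I before an EDTA stop, and they cleaved during both steps. Reverse transcription with template switching preceded Illumina sequencing. Relative activity divides a variant's cleaved/total read fraction by the unmutated ribozyme's. At least 5 reads were required per variant, and three batches were averaged.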

| Variant | self-cleavage |
| --- | --- |
| UAACAGAGGGCCACAGCAGAAGCGUUCACGUCGCAGCCCCUGUCAGAUUCUGGUGAGUCUGCGAAUUCUGCUGUAUACCCC [G7A A57G U78C U80C] | 0.13 |
| UAACAGAGGGCCACAGCAGAAGCGUUCACGUCGCAGCCCCUGUCAGAUUCUGGUGAAUCUGCGGAUUCUGCUGUACAUCUC [G7A A64G U76C] | 0.19 |
| UAACAGAGGGCCACAGCAGAAGCGUUCACGUCGCAGCCCCUGUCAGAUUCUGGUGAAUCUGCGAAUUCUGCUGUAUGUCGC [G7A A77G U80G] | 0.04 |
| UAACAGAGGGGCACAGCAGAAGCGUUCACGUCGCAGCCCCUGUCAGAUUCUAGCGAAUCUACGAAUUCUGCCGUAUAUCUC [G7A C11G G52A U54C G61A U72C] | 0.1 |
| UAACAGAGGGUCACACCAGAACCGUUCUCGUCGCAGCCCCAGUCAGAUUCUGGAGAAUCUGCGAAUUCUGCUGUAUAUCUC [G7A C11U G16C G22C A28U U41A U54A] | 0.06 |
| UAACAGAGGGUCACAGCAGAAGCGUUCACGUCGCAACCCCUGUCAGAUUCCGGUGAAUCUGCGGAUCCUGCUGUAUAUCUC [G7A C11U G36A U51C A64G U67C] | 0.03 |
| UAACAGAGGGUCACAGCAGAAGCGUUCACGUCGCAGCCCCUGACAGAUUCCGGUGAAUCUGCGAAUUCUGCUGUAUAUCUC [G7A C11U U43A U51C] | 0.3 |
| UAACAGAGGGCAACAGCAGAAGCGUCCACGUCGCAGCCUCUGUCAGAUUCUGGUGAAUCUGCGAAUUCUGCUGUGUAUCUC [G7A C12A U26C C39U A75G] | 0.04 |
| UAACAGAGGGCGACAGCAGAAGCGUUCACGUCGCAGCCCCUGUCAGACUCUGGUGAAUUUGCGAAUUCCGCUGUAUAUCUC [G7A C12G U48C C59U U69C] | 0.04 |
| UAACAGAGGGCUACAGCGGAAACGUUCACGUCGCAGCCCCUGACAGAUUCUGGUGAAUCUGCGAAAUCUGCUGUAUAUCUC [G7A C12U A18G G22A U43A U66A] | 0.03 |
| UAACAGAGGGCUACAGCAGAAGCGUUAACGUCGCAGCCCCUGUCAGAUUCUGGUGAGUCUGCGAAUUCUGCUGUAUAUCUC [G7A C12U C27A A57G] | 0.05 |
| UAACAGAGGGCUACAGCAUAAGUGUUCACGUCGCAGCCCCUGUCAGGUUCUGGCGAAUCUGCGAAUUCUGCUGUAUAUCUC [G7A C12U G19U C23U A47G U54C] | 0.04 |
| UAACAGAGGGCUACAGCAGAAGCGCUCACGUCGCUGCCCCUGUCAGAUUCUGGUGAAUCUGCGAAUUCUGCUGUAUACCUC [G7A C12U U25C A35U U78C] | 0.05 |
| UAACAGAGGGCCAGAGCAGAAGCGUCCACGUCGCAGCCCCUGUCAGGUUCUGGCGAAUCUGCGUAUUCUGCUGUAUACCUC [G7A C14G U26C A47G U54C A64U U78C] | 0.06 |
| UAACAGAGGGCCAUAGCAGAAGCGUUCACGUCGCAGCCCCUGUCAGAUCCUGGUGAAUCUGCGAAUUCUGCUGUAUAUAUC [G7A C14U U49C C79A] | 0.3 |
| UAACAGAGGGCCACAGUAGAAGCGUUCACGUCGCAGCCCCUGUCAGAUUAUGGUGAAUCUGCGUAUUCUGCUGUAUAUCUC [G7A C17U C50A A64U] | 0.05 |
| UAACAGAGGGCCACAGUAGAAGCGUUCACGUCGCAGCCCCUGUCAGAUUCUGGUGAAUCUGCGAAUUCUGCUGUAUAUCCC [G7A C17U U80C] | 0.4 |

| Variant | self-cleavage |
| --- | --- |
| UAACAGAGGGCCACAGCAGAAGUGUACACGUCGUAGCCCCUGUCAGAUUCCGGUGAAUCUGCGAAUUCUGCUGAAAAUCUC [G7A C23U U26A C34U U51C U74A U76A] | 0.05 |
| UAACAGAGGGCCACAGCAGAAGUGUCCACGUCGCAGCCCCUGUCAGAUUCUGGUGAAUCUGCGAAUUCUGCUGUAUAUCUC [G7A C23U U26C] | 0.05 |
| UAACAGAGGGCCACAGCAGAAGUGUUCACGUCGCAGCCCCAGUCAGAUUCUGGUGAAUCUGCGAAUUCUGCUGUCUAUCUC [G7A C23U U41A A75C] | 0.17 |
| UAACAGAGGGCCACAGCAGAAGCGUUAACGCCGCAGCACCUGUCAGAUUCUGGUGAAUCUGCGAAUUCUGCUGUAUAUCCC [G7A C27A U31C C38A U80C] | 0.05 |
| UAACAGAGGGCCACAGCAGAAGCGUUGACGUCGCAGCCCCUGUCAGAUACUGGCGAAUCAGCGAAUUCUGCUGUAUAUCUC [G7A C27G U49A U54C U60A] | 0.09 |
| UAACAGAGGGCCACAGCAGAAGCGUUCACGUUGCAGCCCCUGUCAGAUUCUGGCGAAUCUGCGAAUUCUGCUGUAUAUCUC [G7A C32U U54C] | 0.17 |
| UAACAGAGGGCCACAGCAGAAGCGUUCACGUCGCAGUCCCUGUCAGAUUCUGGUGAAUCUGCGAUUUCUGCUGUAUAUCUC [G7A C37U A65U] | 0.09 |
| UAACAGAGGGCCACAGCAGAAGCGUUCACGUCGCAGCACCUGUCAGAUUCUGGUUAAUCCGCGAAUUCUGCUGUAUAUCUC [G7A C38A G55U U60C] | 0.23 |
| UAACAGAGGGCCACAGCAGAAGCGUUCACGUCGCAGCCCAUGUCAGAUUCCGGUGAAUCAGCGAAUCCUGCUGUAAAUCCC [G7A C40A U51C U60A U67C U76A U80C] | 0.04 |
| UAACAGAGGGCCACAGCAGAAGCGUUCACGUCGCAGCCCGUGUCAGAUUCGGGUGAGUCUGCGAAUUCUGCCGUAUAUCUC [G7A C40G U51G A57G U72C] | 0.02 |
| UAACAGAGGGCCACAGCAGAAGCGUUCACGUCGCAGCCCCUGUUAGAUUCUGGUGAAUCUGCGAAUUCUGCUGCAUAUCUC [G7A C44U U74C] | 0.29 |
| UAACAGAGGGCCACAGCAGAAGCGUUCACGUCGCAGCCCCUGUCAGAUUUUGGUGAAACCACGAAUUCUGCUGUAAAUCUC [G7A C50U U58A U60C G61A U76A] | 0.06 |
| UAACAGAAGGCCUCAGCAGAAGCGUACACGUCGCAGCCCCUGUCAGAUUCUGGUGAAUCUGCGAACUCGGCUGUAUAUCAC [G7A G8A A13U U26A U66C U69G U80A] | 0.07 |
| UAACAGAAGGCCACAGCAGUAGCGUACACGUCGCAGCCCCUGUCAGAUUCUGGUGAAUCUGCGAAUUCUGCUGUAUAUCUC [G7A G8A A20U U26A] | 0.35 |
| UAACAGAAGGCCACAUCAGAAGCGCUCACGUCGCAGCCCCUGUCAGAUUCUGGUGAAUCUGCGAAUUCUGCUGUAUAUCUC [G7A G8A G16U U25C] | 0.4 |
| UAACAGACGGCCGCAGCAGAAGCGUUCACGUCGCAGCCCCUGUCAGAUUCUGGUGAAUCUGCGAACUCAGCUGUAUAUCUC [G7A G8C A13G U66C U69A] | 0.08 |
| UAACAGACGGCCACAGCUGAAGCGUUCACGUCGCAGCCCGUGUCAGAUUCUGGUGAGCCUGCGGAUUCUGCUGUAUAUCUC [G7A G8C A18U C40G A57G U58C A64G] | 0.06 |
